From paper PMC4336329 (PLoS ONE, 2015)
Among all 310,000 compounds or so, about 2,200 (0.71%) showed an effect of 50% or more. The effect is printed as a negative number. The list shows a part of the results.

Molecular target: human ether-à-go-go-related gene (hERG) potassium channel (human, UniProt Q12809)
Assay: primary screen, population patch clamp on CHO cells stably expressing hERG

Chain of human ether-à-go-go-related gene (hERG) potassium channel (Q12809 whole entry, looked up): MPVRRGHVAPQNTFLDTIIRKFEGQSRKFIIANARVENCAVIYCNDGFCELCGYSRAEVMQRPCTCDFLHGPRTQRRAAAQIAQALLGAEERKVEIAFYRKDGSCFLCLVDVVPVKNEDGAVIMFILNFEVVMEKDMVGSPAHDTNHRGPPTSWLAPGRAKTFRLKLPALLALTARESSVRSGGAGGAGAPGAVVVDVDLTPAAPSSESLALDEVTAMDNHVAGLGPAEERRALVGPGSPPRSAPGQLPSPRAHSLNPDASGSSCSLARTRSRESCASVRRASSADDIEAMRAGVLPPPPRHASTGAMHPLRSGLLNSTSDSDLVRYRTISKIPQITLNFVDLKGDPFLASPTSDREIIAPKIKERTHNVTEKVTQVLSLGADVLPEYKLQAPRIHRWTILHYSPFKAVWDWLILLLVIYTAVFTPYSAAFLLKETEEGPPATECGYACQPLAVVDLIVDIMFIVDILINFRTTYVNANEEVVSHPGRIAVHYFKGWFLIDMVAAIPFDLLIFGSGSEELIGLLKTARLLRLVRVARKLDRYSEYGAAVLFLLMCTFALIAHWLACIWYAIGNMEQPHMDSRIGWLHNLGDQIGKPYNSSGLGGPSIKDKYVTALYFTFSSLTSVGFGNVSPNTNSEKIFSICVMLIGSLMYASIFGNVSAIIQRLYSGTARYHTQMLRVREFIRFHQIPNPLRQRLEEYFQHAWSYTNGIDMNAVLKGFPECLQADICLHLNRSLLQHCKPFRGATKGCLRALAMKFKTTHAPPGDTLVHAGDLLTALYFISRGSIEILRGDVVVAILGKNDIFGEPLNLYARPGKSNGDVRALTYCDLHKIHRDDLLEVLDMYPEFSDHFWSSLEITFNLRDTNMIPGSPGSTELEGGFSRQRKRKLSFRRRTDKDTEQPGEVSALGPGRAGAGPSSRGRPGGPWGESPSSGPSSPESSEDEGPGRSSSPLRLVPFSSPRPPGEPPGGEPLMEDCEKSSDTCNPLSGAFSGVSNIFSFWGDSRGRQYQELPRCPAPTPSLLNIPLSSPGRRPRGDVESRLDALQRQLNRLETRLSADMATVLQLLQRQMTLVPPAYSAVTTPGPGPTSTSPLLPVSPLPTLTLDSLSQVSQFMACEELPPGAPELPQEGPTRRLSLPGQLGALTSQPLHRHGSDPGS

SMILES | hERG current change (%, negative = inhibition) at 1uM
O=C(COc1ccc(Br)cc1)NCCCNC(=O)c1cnccn1 | 5.91%
CC(C)(C)c1cc(C(c2cccnc2)N2CCN(CCO)CC2)cc(C(C)(C)C)c1O (stereo not drawn) | -6.53%
C#CCOCCOCCOCCNc1nc(N2CCN(C(=O)C([C@@H](C)CC)n3cc(C(N)COC(=O)C(F)(F)F)nn3)CC2)nc(N2CCN(C(=O)[C@H](CCC(=O)O)n3cc(C(N)CC(C)C)nn3)CC2)n1.Cl (stereo partly drawn) | 17.1%
CCn1c(SCC(=O)N2CCN(c3ccccc3)CC2)nnc1-c1ccoc1C | -13.8%
Cc1ccc(C2C(C#N)=C(N)N(N(C)C)C3=C2C(=O)CCC3)cc1 (stereo not drawn) | -11.3%
COc1ccc(-c2csc3ncnc(Cl)c23)cc1 | 9.71%
COc1ccc(C(C(=O)NC(C)(C)C)N(C(=O)CCC(=O)Nc2cc(C)on2)c2ccc(C)c(C)c2)cc1 (stereo not drawn) | 8.81%
CCC1Sc2ccc(S(=O)(=O)CCC(=O)Nc3ccc(C(=O)OC)cc3)cc2NC1=O (stereo not drawn) | 17.1%
CC(C)(C)N(Cc1ccccc1)C(=O)COC(=O)CN1C(=O)NC2(CCCC2)C1=O | 12.2%
O=C(Nc1ccc(-c2cn3c(n2)SCC3)cc1)c1ccc2ccccc2n1 | 11.7%
CCCCOC(=O)c1cccc(NC(=O)CCC(=O)O)c1 | 3.29%
COc1ccccc1CN(C)S(=O)(=O)c1cccs1 | 11.6%
N=C1S/C(=C\c2ccc(-c3cccc(Cl)c3)o2)C(=O)N1c1nccs1 | 15%
Cc1cccnc1CCNC(=O)CC1C(=O)NCCN1CC1CCCCC1 (stereo not drawn) | 12.5%
CCCCNC(=O)CCC(=O)N1CCN(C(c2ccccc2)c2ccccc2)CC1.Cl | 5.61%
COC(=O)c1cnn(-c2ccccc2)c1N | 14%
C/C(=N\NC(=O)c1cccc(Cl)c1)c1cccc(NC(=O)C(C)C)c1 | 5.69%
CCC(Sc1nc(=O)cc(N)n1CCc1ccccc1)C(=O)Nc1ccccc1C#N (stereo not drawn) | 11%
CS(=O)(=O)c1ccc2nc(N)sc2c1 | 6.23%
CC(NC(=O)Cc1ccc(F)cc1)c1ccc(F)cc1 (stereo not drawn) | 2.92%
Br.CCS(=O)CCSC(=N)N (stereo not drawn) | 20.4%
Cc1nc2ncnn2c(C)c1CCC(=O)N1CCc2ccccc2C1 | -19.5%

SMILES | hERG current change (%, negative = inhibition) at 1uM
COC(=O)c1ccccc1NC(=O)c1ccc(-c2ccccc2F)o1 | 5.07%
O=C1CC(N2CCN(S(=O)(=O)c3ccccc3)CC2)C(=O)N1c1ccccc1 (stereo not drawn) | 10.9%
CCC[C@H]1CCCC/C=C\CCCC(=O)OCCN1C(=O)OC(C)(C)C | 11.8%
Cc1ccc(CNC(=O)C(=O)NCC2OCCCN2S(=O)(=O)c2cccs2)cc1 (stereo not drawn) | -5.73%
COc1ccccc1NC(=S)NC(=O)C(C)(C)C | 3.61%
O=[N+]([O-])c1ccccc1/C=N\N1CCN(Cc2ccccc2Cl)CC1 | 14.5%
Cc1noc(C)c1COc1ccccc1C(=O)NC(C)c1ccc(Cl)cc1 (stereo not drawn) | -3%
Cc1ccc(-n2nnc3c(=O)n(CC(=O)N4CCCC4)cnc32)cc1 | -11.8%
CCN(C(=O)c1cc2ccccc2o1)C12CC3CC(CC(C3)C1)C2 | 9.26%
CCCCc1ccc(NC(=O)c2ccc(N(C)S(C)(=O)=O)cc2)cc1 | 8.33%
CCc1ccc(NC(=O)CN2CC(c3ccccc3)CC2=O)cc1 (stereo not drawn) | -1.19%
Cc1ccc(S(=O)(=O)NC2=NCN(Cc3ccccc3)CN2)cc1 | 17.6%
CCCCOc1ccc(C(=O)NCC(=O)NCC(c2ccc(OC)cc2)N2CCCC2)cc1 (stereo not drawn) | -1.56%
CC(=O)c1c(C)[nH]c(C(=O)OCC(=O)c2c(N)n(C)c(=O)n(C)c2=O)c1C | 15.1%
CCCCC(=O)Nc1ccc(NC(=S)NC(=O)CC(C)C)cc1OC | -1.19%
Cc1cc(C)c2c(n1)sc1c(O)cc(=O)[nH]c12 | 4.46%
CC(C)CNC(=O)c1ccc(Cl)c(N)c1 | 11.3%
Cc1cccc(NS(=O)(=O)c2ccc(-c3ccc(=O)[nH]n3)o2)c1 | 9.65%
CCOc1nc(Nc2ccc(OC)cc2)nc(OCC)n1 | 4.07%
COc1cc(C(=O)NC(CCSC)C(=O)OCC(=O)NC(=O)C2CCCCC2)cc(OC)c1OC (stereo not drawn) | 12.7%
Cc1cc(=O)oc2c(C)c(OCC(=O)NCc3ccccn3)ccc12 | 15%
CC(C)C(NC(=O)c1c(F)cccc1F)C(=O)N1CCN(S(=O)(=O)/C=C/c2ccccc2)CC1 (stereo not drawn) | -0.618%

SMILES | hERG current change (%, negative = inhibition) at 1uM
O=C(CCC(=O)c1cccs1)Nc1nc2ccccc2s1 | 12.9%
O=P(CCCCCCCCCP(=O)(c1ccccc1)c1ccccc1)(c1ccccc1)c1ccccc1 | -8.02%
O=C1CCCC(O)=C1Sc1cc(Cl)c(Cl)cc1Cl | 10.1%
CC(=O)O.NC(N)=N/N=C/c1ccccc1OC(F)F | 1.09%
O=C(NCc1nnc(SCC(=O)N2CCCc3ccccc32)o1)c1ccccc1F | 10.8%
COc1cccc(C(=O)Nc2nnc(-c3cccs3)o2)c1 | 15.9%
CCCN1C(=O)/C(=C/c2cc(C)n(C)c2C)SC1=Nc1ccc(OCC)cc1 | 13.8%
Cc1c(Cl)c(C(=O)NNC(=S)Nc2ccc(F)cc2)nn1C | 16.3%
COc1ccccc1Oc1ccc2c(c1)C(=O)N(CC1CCCO1)C2=O (stereo not drawn) | 10.9%
Cc1ccc(NC(=O)N2CCCN(C(=O)OC(C)(C)C)CC2)cc1Cl | 14.5%
Cc1nc(SCC(=O)NCC2CCCO2)c2cc(-c3ccccc3)sc2n1 (stereo not drawn) | 2.82%
CCCc1cc(=O)n2[nH]c(C(F)(F)F)nc2n1 | 5.3%
Cc1ccc(NC(=S)c2ccc(N(C)C)cc2)cc1 | 21%
CNC(=O)Oc1ccc(-c2cn3cc(Cl)ccc3n2)cc1 | 1.3%
COc1ccc(-n2nc(C(=O)NCC(=O)NC3CCCC(C)C3C)c3ccccc3c2=O)cc1 (stereo not drawn) | 14.3%
O=C1CN(C(=O)CSc2nnc(C3CC3)n2-c2ccccc2)c2ccccc2N1 | 1.46%
CC(C(=O)NC1CCCCC1)N1C(=O)C2C3C=CC(C3)C2C1=O (stereo not drawn) | 7.93%
COc1cccc(C(=O)Nc2cccc(-c3nnc(-c4ccco4)o3)c2)c1 | -1.01%
CC(C)(CNC(=O)c1cccc(F)c1)CNC(=O)c1cccc(F)c1 | 12.4%
CCCC(O)(c1ccccc1)C(CN1CCOCC1)c1ccccc1.Cl (stereo not drawn) | 12.1%
CCCC(=O)Nc1sc2c(c1C#N)CCCC2 | 13.5%
CCN(CC)S(=O)(=O)N1CCC(C(=O)NCc2ccco2)CC1 | 7.53%

SMILES | hERG current change (%, negative = inhibition) at 1uM
Cc1cc(C)cc(N(CC(=O)NCC2CCCO2)C(=O)CCC(=O)Nc2cc(C)on2)c1 (stereo not drawn) | 13.9%
COC(=O)c1cc(OC)c(OC)cc1NC(=O)CCNC(=O)c1ccco1 | 12.8%
Cc1c(Cl)cccc1NC(=O)CNc1cccc(S(=O)(=O)N(C)C)c1 | 4.67%
CC1(C)CC(NC(=O)c2ccccn2)CC(C)(C)N1O.Cl | 14.7%
Cc1ccc(S(=O)(=O)N(CCC(=O)NCc2ccccc2F)c2ccccc2)cc1 | 8.11%
COc1ccc2c(c1)OC[C@H]1[C@H]2N2C(=O)CN(Cc3ccc(Cl)cc3)C(=O)[C@@]2(C)[C@H]1c1ccccc1 | 13.6%
COc1ccccc1Nc1nnc(SCC2CCCCO2)s1 (stereo not drawn) | 6.13%
O=C(Cn1cc([N+](=O)[O-])cn1)N1CCN(c2ccccc2)CC1 | 13.8%
CCOC(=O)C1CCN(c2c(Nc3cc(C)cc(C)c3)c(=O)c2=O)CC1 | -1.37%
CCC(C)Sc1cccc(-c2nc3cc(C)ccn3c2NCc2ccccc2)c1.O=C(O)C(F)(F)F (stereo not drawn) | 10.8%
Cc1ccc(NCc2ccccc2O)cc1 | 15.5%
CCOC(=O)c1cnc2c(C)cccc2c1Nc1ccc(N2CCOCC2)cc1 | 10%
Cc1c(N=Cc2c(O)n(CCc3ccccc3)c(=O)[nH]c2=O)c(=O)n(-c2ccccc2)n1C | -5.62%
CC(=O)c1cccc(N(C(=O)c2ccco2)C(C(=O)NC2CCCC2)c2cccs2)c1 (stereo not drawn) | 8.92%
O=C(CN(Cc1ccccc1)C(=O)c1csnn1)NCc1ccccc1 | 20.2%
O=c1cc(N2CCCCC2)c2ccccc2o1 | 2.5%
O=C(CSc1nc(Nc2ccccc2)nc(N2CCOCC2)n1)N1CCCC1 | -5.6%
Cn1cc(C2=C(c3ccc(Cl)cc3Cl)C(=O)NC2=O)c2ccccc21 | 38%
COc1ccc(C(=O)N/C(=C\c2cc(OC)c(OC)cc2[N+](=O)[O-])C(=O)NCCO)cc1 | 7.21%
CC1CCN(C2=NC(=O)/C(=C/c3cn(-c4ccccc4)nc3-c3cccc(S(=O)(=O)N(C)C)c3)S2)CC1 | -2.11%
CC1CCCCC1NC(=O)/C(C#N)=C/C=C/c1ccccc1[N+](=O)[O-] (stereo not drawn) | 7.34%
